# Laboratory results: the supplement of paper PMC8728848
# This is one part of the list.
# B1: TbCVNHOb (Tuber borchii) (protein)
# chain: GSHIGPYMSFYASSEDVRTIEEGGRTWLVGRARRADGSWQDIKLDLDNIIGNRDGHLTWGEQNFTQSASDIRFNFEGGSNVPVLRAKLRNAAGGEQESDLNLGERLTNNNGDLVFN
# How the values were obtained:
# Experiment in all cases: glycan array binding signal (z-score within array); higher = stronger binding
# Conditions in all cases: glycan notation: IUPAC condensed, linker removed
# [1] = molecular target: Neu5Ac(a2-3)Gal(b1-3)GalNAc(b1-3)Gal(a1-4)Gal(b1-4)Glc
# Method in brief: (§1)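 The binding signal is a Z-score computed within each array. Data were drawn from 3228 arrays in the Consortium for Functional Glycomics database, restricted to those with a known protein sequence. Scores were averaged over arrays of the same protein sequence at different concentrations or buffers, and over linkers, and negative values can be taken as non-binding.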
# [2] = molecular target: Neu5Ac(a2-3)Gal(b1-3)GalNAc(b1-4)[Neu5Ac(a2-3)]Gal(b1-4)Glc
# Method in brief: as §1
# [3] = molecular target: Neu5Ac(a2-3)Gal(b1-3)GalNAc6S
# Method in brief: as §1
# [4] = molecular target: Neu5Ac(a2-3)Gal(b1-3)GlcNAc
# Method in brief: as §1
# [5] = molecular target: Neu5Ac(a2-3)Gal(b1-3)GlcNAc(b1-3)Gal(b1-4)GlcNAc
# Method in brief: as §1
# [6] = molecular target: Neu5Ac(a2-3)Gal(b1-3)GlcNAc6S
# Method in brief: as §1
# [7] = molecular target: Neu5Ac(a2-3)Gal(b1-3)[Fuc(a1-4)]GlcNAc
# Method in brief: as §1
# [8] = molecular target: Neu5Ac(a2-3)Gal(b1-3)[Fuc(a1-4)]GlcNAc(b1-3)Gal(b1-4)[Fuc(a1-3)]GlcNAc
# Method in brief: as §1
# [9] = molecular target: Neu5Ac(a2-3)Gal(b1-3)[Neu5Ac(a2-3)Gal(b1-4)]GlcNAc
# Method in brief: as §1
# [10] = molecular target: Neu5Ac(a2-3)Gal(b1-3)[Neu5Ac(a2-6)]GalNAc
# Method in brief: as §1
# [11] = molecular target: Neu5Ac(a2-3)Gal(b1-4)Glc
# Method in brief: as §1
# [12] = molecular target: Neu5Ac(a2-3)Gal(b1-4)GlcNAc
# Method in brief: as §1
# [13] = molecular target: Neu5Ac(a2-3)Gal(b1-4)GlcNAc(b1-3)Gal(b1-4)GlcNAc
# Method in brief: as §1
# [14] = molecular target: Neu5Ac(a2-3)Gal(b1-4)GlcNAc(b1-3)Gal(b1-4)GlcNAc(b1-3)Gal(b1-4)GlcNAc
# Method in brief: as §1
# [15] = molecular target: Neu5Ac(a2-3)Gal(b1-4)GlcNAc(b1-3)Gal(b1-4)[Fuc(a1-3)]GlcNAc
# Method in brief: as §1
# [16] = molecular target: Neu5Ac(a2-3)Gal(b1-4)GlcNAc6S
# Method in brief: as §1
# [17] = molecular target: Neu5Ac(a2-3)Gal(b1-4)[Fuc(a1-3)]GlcNAc
# Method in brief: as §1
# [18] = molecular target: Neu5Ac(a2-3)Gal(b1-4)[Fuc(a1-3)]GlcNAc(b1-3)Gal
# Method in brief: as §1
# [19] = molecular target: Neu5Ac(a2-3)Gal(b1-4)[Fuc(a1-3)]GlcNAc(b1-3)Gal(b1-4)GlcNAc
# Method in brief: as §1
# [20] = molecular target: Neu5Ac(a2-3)Gal(b1-4)[Fuc(a1-3)]GlcNAc(b1-3)Gal(b1-4)[Fuc(a1-3)]GlcNAc(b1-3)Gal(b1-4)[Fuc(a1-3)]GlcNAc
# Method in brief: as §1
# [21] = molecular target: Neu5Ac(a2-3)Gal(b1-4)[Fuc(a1-3)]GlcNAc6S
# Method in brief: as §1
# [22] = molecular target: Neu5Ac(a2-3)Gal6S(b1-4)GlcNAc
# Method in brief: as §1
# [23] = molecular target: Neu5Ac(a2-3)Gal6S(b1-4)[Fuc(a1-3)]GlcNAc
# Method in brief: as §1
# [24] = molecular target: Neu5Ac(a2-3)GalNAc
# Method in brief: as §1
# [25] = molecular target: Neu5Ac(a2-3)GalNAc(b1-4)GlcNAc
# Method in brief: as §1
# [26] = molecular target: Neu5Ac(a2-3)[GalNAc(b1-4)]Gal(b1-4)Glc
# Method in brief: as §1
# [27] = molecular target: Neu5Ac(a2-3)[GalNAc(b1-4)]Gal(b1-4)GlcNAc
# Method in brief: as §1
# [28] = molecular target: Neu5Ac(a2-3)[Neu5Ac(a2-6)]GalNAc
# Method in brief: as §1
# [29] = molecular target: Neu5Ac(a2-6)Gal(b1-4)GlcNAc
# Method in brief: as §1
# [30] = molecular target: Neu5Ac(a2-6)Gal(b1-4)GlcNAc(b1-2)Man(a1-3)[Neu5Ac(a2-6)Gal(b1-4)GlcNAc(b1-2)Man(a1-6)]Man(b1-4)GlcNAc(b1-4)GlcNAc
# Method in brief: as §1
# [31] = molecular target: Neu5Ac(a2-6)Gal(b1-4)GlcNAc(b1-3)Gal(b1-4)GlcNAc
# Method in brief: as §1
# [32] = molecular target: Neu5Ac(a2-6)Gal(b1-4)GlcNAc(b1-3)Gal(b1-4)[Fuc(a1-3)]GlcNAc(b1-3)Gal(b1-4)[Fuc(a1-3)]GlcNAc
# Method in brief: as §1
# [33] = molecular target: Neu5Ac(a2-6)Gal(b1-4)GlcNAc6S
# Method in brief: as §1
# [34] = molecular target: Neu5Ac(a2-6)GalNAc
# Method in brief: as §1
# [35] = molecular target: Neu5Ac(a2-6)GalNAc(b1-4)GlcNAc
# Method in brief: as §1
# [36] = molecular target: Neu5Ac(a2-8)Neu5Ac
# Method in brief: as §1
# [37] = molecular target: Neu5Ac(a2-8)Neu5Ac(a2-3)Gal(b1-4)Glc
# Method in brief: as §1
# [38] = molecular target: Neu5Ac(a2-8)Neu5Ac(a2-3)[GalNAc(b1-4)]Gal(b1-4)Glc
# Method in brief: as §1
# [39] = molecular target: Neu5Ac(a2-8)Neu5Ac(a2-8)Neu5Ac
# Method in brief: as §1
# [40] = molecular target: Neu5Ac(a2-8)Neu5Ac(a2-8)Neu5Ac(a2-3)Gal(b1-4)Glc
# Method in brief: as §1
# [41] = molecular target: Neu5Ac(a2-8)Neu5Ac(a2-8)Neu5Ac(a2-3)[GalNAc(b1-4)]Gal(b1-4)Glc
# Method in brief: as §1
# [42] = molecular target: Neu5Ac(a2-8)Neu5Ac(a2-8)Neu5Ac(a2-8)Neu5Ac(a2-3)[GalNAc(b1-4)]Gal(b1-4)Glc
# Method in brief: as §1
# [43] = molecular target: Neu5Ac9Ac(a2-6)Gal(b1-4)GlcNAc
# Method in brief: as §1
# [44] = molecular target: Neu5Gc(a2-3)Gal(b1-3)GlcNAc
# Method in brief: as §1
# [45] = molecular target: Neu5Gc(a2-3)Gal(b1-3)[Fuc(a1-4)]GlcNAc
# Method in brief: as §1
# [46] = molecular target: Neu5Gc(a2-3)Gal(b1-4)Glc
# Method in brief: as §1
# [47] = molecular target: Neu5Gc(a2-3)Gal(b1-4)GlcNAc
# Method in brief: as §1
# [48] = molecular target: Neu5Gc(a2-3)Gal(b1-4)[Fuc(a1-4)]GlcNAc
# Method in brief: as §1
# [49] = molecular target: Neu5Gc(a2-6)Gal(b1-4)GlcNAc
# Method in brief: as §1
# [50] = molecular target: Neu5Gc(a2-6)GalNAc
# Method in brief: as §1
binder,measurement,setting,value
B1,glycan array binding signal (z-score),[1],3.63
same,glycan array binding signal (z-score),[2],-0.148
same,glycan array binding signal (z-score),[3],-0.619
same,glycan array binding signal (z-score),[4],-0.491
same,glycan array binding signal (z-score),[5],-0.587
same,glycan array binding signal (z-score),[6],-0.045
same,glycan array binding signal (z-score),[7],-0.198
same,glycan array binding signal (z-score),[8],1.13
same,glycan array binding signal (z-score),[9],-0.625
same,glycan array binding signal (z-score),[10],-0.348
same,glycan array binding signal (z-score),[11],0.864
same,glycan array binding signal (z-score),[12],-0.496
same,glycan array binding signal (z-score),[13],-0.329
same,glycan array binding signal (z-score),[14],-0.471
same,glycan array binding signal (z-score),[15],-0.251
same,glycan array binding signal (z-score),[16],-0.401
same,glycan array binding signal (z-score),[17],-0.457
same,glycan array binding signal (z-score),[18],-0.45
same,glycan array binding signal (z-score),[19],-0.387
same,glycan array binding signal (z-score),[20],-0.412
same,glycan array binding signal (z-score),[21],-0.607
same,glycan array binding signal (z-score),[22],-0.594
same,glycan array binding signal (z-score),[23],0.853
same,glycan array binding signal (z-score),[24],-0.569
same,glycan array binding signal (z-score),[25],-0.633
same,glycan array binding signal (z-score),[26],-0.549
same,glycan array binding signal (z-score),[27],-0.501
same,glycan array binding signal (z-score),[28],-0.604
same,glycan array binding signal (z-score),[29],-0.287
same,glycan array binding signal (z-score),[30],-0.528
same,glycan array binding signal (z-score),[31],-0.196
same,glycan array binding signal (z-score),[32],-0.484
same,glycan array binding signal (z-score),[33],-0.583
same,glycan array binding signal (z-score),[34],-0.341
same,glycan array binding signal (z-score),[35],-0.535
same,glycan array binding signal (z-score),[36],-0.335
same,glycan array binding signal (z-score),[37],-0.579
same,glycan array binding signal (z-score),[38],0.097
same,glycan array binding signal (z-score),[39],-0.121
same,glycan array binding signal (z-score),[40],-0.246
same,glycan array binding signal (z-score),[41],-0.405
same,glycan array binding signal (z-score),[42],-0.244
same,glycan array binding signal (z-score),[43],-0.495
same,glycan array binding signal (z-score),[44],-0.576
same,glycan array binding signal (z-score),[45],-0.276
same,glycan array binding signal (z-score),[46],-0.42
same,glycan array binding signal (z-score),[47],-0.572
same,glycan array binding signal (z-score),[48],-0.228
same,glycan array binding signal (z-score),[49],-0.326
same,glycan array binding signal (z-score),[50],-0.435
